Source: PubChem BioAssay (NCI)
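Dose response: 5 concentrations. Exposure: 48 h. Format: 96-well plates. Endpoint: linear interpolation; highest concentration if not reached. Here, GI50 denotes the concentration required for 50% inhibition of growth. TGI: concentration producing complete growth inhibition.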

Test system: NCI-H322M lung
Test: NCI tumour cell line growth inhibition, 48 h

First: O=C(CCCCCCNC(=O)C(O)(O)C(F)(F)F)Nc1ncc(-c2ccccc2)s1
Second: CCCCCc1ccc(S(=O)(=O)Nc2cc(-c3csc(NC(=O)CN4CCN(CCO)CC4)n3)ccc2OC)cc1
The GI50 of the first is 2.6-fold higher: 5110 nM for the first, 1960 nM for the second.

First: O=C1C(c2ccccc2)=C(N2CCc3ccccc32)OC1(Cl)Cl
Second: CN1CCN(Cc2ccc(NC(=O)c3cncc(C#Cc4cnc5[nH]ncc5c4)c3)cc2C(F)(F)F)CC1
The GI50 of the first is 4.2-fold higher: 16300 nM for the first, 3860 nM for the second.

`COc1ccc2c(c1)c(-c1cc(N)n3nc(-c4cn(C)c5ccc(OC)cc45)cc3n1)cn2C` and `COC[C@]12CC[C@@H](C)[C@H](C)[C@H]1C1=CC[C@@H]3[C@@]4(C)CCCNC(C)(C)[C@@H]4CC[C@@]3(C)[C@]1(C)CC2` are within 1.5-fold of each other in GI50: 1840 nM for the first, 1870 nM for the second.

First: O=C(CCCCCCNC(=O)C(O)(O)C(F)(F)F)Nc1ncc(-c2ccccc2)s1
Second: CCCCCc1ccc(S(=O)(=O)Nc2cc(-c3csc(NC(=O)CN4CCN(CCO)CC4)n3)ccc2OC)cc1
The TGI of the first is higher: greater than 23.5 µM for the first, 4.59 µM for the second.

Compared with `O=C1C(c2ccccc2)=C(N2CCc3ccccc32)OC1(Cl)Cl`, `CN1CCN(Cc2ccc(NC(=O)c3cncc(C#Cc4cnc5[nH]ncc5c4)c3)cc2C(F)(F)F)CC1` is 1.7-fold lower in TGI: 43.2 µM for the first, 25.5 µM for the second.

`COc1ccc2c(c1)c(-c1cc(N)n3nc(-c4cn(C)c5ccc(OC)cc45)cc3n1)cn2C` and `COC[C@]12CC[C@@H](C)[C@H](C)[C@H]1C1=CC[C@@H]3[C@@]4(C)CCCNC(C)(C)[C@@H]4CC[C@@]3(C)[C@]1(C)CC2` are within 1.5-fold of each other in TGI: 3.61 µM for the first, 3.52 µM for the second.
